Measurements taken from PubChem BioAssay (NCATS).
“And” between values parts separate entries of the source, which are not always exact repeats. Equal entries are not always repeated. This list was built around the results that the source calls inconclusive (neither active nor inactive); the mix of calls is not that of the screen. Entries that show only a call come without a potency. For some assays here: Potencies of inconclusive entries are doubtful fits and often do not repeat. The source made the active and inactive calls. Unless noted, calls follow the shape of the dose curve; as a rule, active = well fitted curve in the direction sought with a large enough effect; inconclusive = small, poorly fitted or top-dose-only effect, or another doubt; inactive = no such curve, though single readings can be large; an effect the other way counts as inactive or inconclusive.

Columns and labels:
[1] = Cell Viability - SK-N-SH (AID 435; calls by dose curve;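 also: potency is read from the fitted curve at half-maximal effect; compound exposure lasted 40 h at 37 °C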); settings: SK-N-SH neuroblastoma cell viability qHTS
How it was run: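 CellTiter-Glo ATP luminescence, 20 min RT read; cells pre-plated 5 hr, compound 40 hr at 37 °C, 1500 cells/well, complete medium. Normalized DMSO = 0, 100 uM tamoxifen = 100% inhibition; Hill-fit AC50.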

[2] = NFAT Signaling Pathway (AID 444; active = well fitted curve in either direction with a large enough effect, not every such curve was filed as active; inconclusive = small, poorly fitted or top-dose-only effect, or another doubt;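 also: carbachol stimulus at about its EC50 of 1 µM final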); settings: Jurkat NFAT-bla M1, carbachol, beta-lactamase ratio, 5 h; at 17.2 µM (top of the series)
How it was run: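 Jurkat cells with NFAT-driven β-lactamase reporter and co-expressed M1 receptor, stimulated with carbachol (final 1 uM, ~EC50), compound titration, 5 h at 37 °C. CCF4 loaded 1 h at RT; 460/530 nm ratio gave %activity and AC50.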

[3] = Cell Viability - NIH 3T3 (AID 541); settings: NIH 3T3 cell viability, qHTS; activity change, negative = cytotoxicity: at 92.2 µM (top of the series);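 also: cells exposed to compound for 40 hours; nearly all actives have a fitted effect of over 25% in size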
How it was run: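 qHTS format; 40 hr compound exposure, 37 °C; CellTiter-Glo luminescence (cellular ATP) read-out after 20 min at RT. Decrease in ATP = cytotoxicity; AC50 from standard Hill fit.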

[4] = Cellular Toxicity (caspase-3) SK-N-SH (AID 661); settings: SK-N-SH caspase-3 activation, qHTS; caspase-3 activation: at 91.7 µM (top of the series), DMSO as zero, staurosporine as full
How it was run: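 Luminescent Caspase-Glo 3/7 read-out after 16 hr compound exposure of SK-N-SH neuroblastoma cells at 37 °C. Signal increase normalized to DMSO (basal) and 10 uM staurosporine (100%); AC50 from Hill equation fits of qHTS concentration-response data.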

[5] = qHTS Assay for Identification of Small Molecule Agonists for Hypoxia Response Element Signaling Pathway (AID 914; active = well fitted activation curve with a large enough effect in the signal ratio, with a control signal flat, not every such curve was filed as active; inconclusive = small, poorly fitted or top-dose-only effect, or effect the other way, or a change in a side signal; the % refers to the signal ratio; also: top concentration of the series differs between compounds); settings: ME-180 (cervical carcinoma) HRE-bla reporter, beta-lactamase ratio, CoCl2, 17 h; activation: stronger effect = higher value
How it was run: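 HRE-bla ME-180 assay for agonist-like enhancement of an EC50 CoCl2 stimulus: 17 h at 37 degrees Celsius, CCF4 for 2.5 h, ratiometric 460/530 nm signal converted to %Activity and fitted to AC50.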

[6] = Cell Viability - LYMP2-001 (AID 921);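 also: cells exposed to compound for 24 h at 37 °C; nearly all actives have a fitted effect of over 70% in size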
How it was run: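 CellTiter-Glo luminescence (intracellular ATP) after 24 hr compound exposure at 37 C, 2500 lymphoblastoid cells/well in complete medium. AC50 fitted with standard Hill equation; tetraoctylammonium bromide positive control.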

[7] = Cell Viability - LYMP2-014 (AID 983);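 also: cells exposed to compound for 24 h at 37 °C; nearly all actives have a fitted effect of over 50% in size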
How it was run: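 2500 cells/well, 5 hr 37 C; cpd 24 hr 37 C, complete medium; CellTiter-Glo 30 min RT, luminescence; ATP loss = toxicity; AC50 via Hill eqn; tetraoctylammonium bromide positive control.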

[8] = target: Glucocorticoid receptor (Homo sapiens) (UniProt P04150); assay: qHTS assay for small molecule antagonists of glucocorticoid receptor signaling (AID 588533; active = well fitted inhibition curve with a large enough effect in the signal ratio, with a control signal flat, not every such curve was filed as active; inconclusive = small, poorly fitted or top-dose-only effect, or effect the other way, or a change in a side signal; the % refers to the signal ratio;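 also: cells stimulated with 2 nM dexamethasone as agonist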); settings: HeLa MMTV-bla, GRE beta-lactamase ratio, antagonist mode, 18 h; activity change, negative = inhibition: at 76.8 µM (top of the series)
[9] = target: Peroxisome proliferator-activated receptor gamma (Homo sapiens) (UniProt P37231); assay: qHTS assay for small molecule antagonists of peroxisome proliferator-activated receptor gamma signaling (AID 588537; active = well fitted inhibition curve with a large enough effect in the signal ratio, with a control signal flat, not every such curve was filed as active; inconclusive = small, poorly fitted or top-dose-only effect, or effect the other way, or a change in a side signal; the % refers to the signal ratio;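 also: reporter cells co-stimulated with 50 nM rosiglitazone agonist during compound treatment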); settings: HEK293 PPARg-UAS-bla, beta-lactamase ratio, antagonist mode; activity, negative = inhibition: at 76.8 µM (top of the series)
How it was run: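 Read-out: CCF4 fluorescence (ex 405, em 460/530 nm) after 2 h at RT. Cells were HEK293 carrying a UAS-bla reporter and treated 16 h at 37 C with compound plus rosiglitazone (50 nM final). Normalized to rosiglitazone and DMSO.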

[10] = target: Thyroid hormone receptor beta (Homo sapiens) (UniProt P10828); assay: qHTS assay for small molecule antagonists of thyroid hormone receptor beta signaling (AID 588547; active = well fitted inhibition curve with a large enough effect in the signal ratio, with a control signal flat, not every such curve was filed as active; inconclusive = small, poorly fitted or top-dose-only effect, or effect the other way, or a change in a side signal; the % refers to the signal ratio;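 also: cells stimulated with 0.4 nM T3 agonist during compound exposure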); settings: TR-UAS-bla HEK293, beta-lactamase ratio, antagonist mode, 18 h
How it was run: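 TR-UAS-bla GripTite HEK293 cells in 2% charcoal/dextran FBS medium; compounds 0.59 nM to 92 uM with T3 at 0.4nM final, 18 h at 37 C. Beta-lactamase read by CCF4 fluorescence (460/530 nm); Hill fits gave IC50 and efficacy.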

[11] = qHTS assay for small molecule agonists of the antioxidant response element (ARE) signaling pathway (AID 651741; active = well fitted activation curve with a large enough effect in the signal ratio; inconclusive = small, poorly fitted or top-dose-only effect, or effect the other way, or a change in a side signal; the % refers to the signal ratio); settings: HepG2 ARE-bla reporter, beta-lactamase FRET ratio, 16 h; activation: at 96 µM (top of the series)
How it was run: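 HepG2 ARE-bla reporter cells, 2,000/well; 5 h settle at 37 C/5% CO2; compound pin transfer (23 nL, DMSO); 16 h at 37 C; LiveBLAzer B/G FRET substrate, 2 h RT; fluorescence intensity read.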

[12] = qHTS assay to identify small molecules that stimulate interleukin-8 (IL-8) secretion (AID 651758; active = well fitted activation curve with a large enough effect in the signal ratio; inconclusive = small, poorly fitted or top-dose-only effect, or effect the other way, or a change in a side signal; the % refers to the signal ratio; also: potency is read from the fitted curve at half-maximal effect); settings: HTRF ratio (665/615); activation: at 92.2 µM (top of the series)
How it was run: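 Compounds are added to THP-1 cells (2000 per well) and left 16 hrs at 37 C. A labeled anti-IL-8 antibody pair is then added, and IL-8 secretion is measured by time-resolved FRET after 1-3 hrs at room temperature.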

[13] = qHTS of pediatric cancer cell lines to identify multiple opportunities for drug repurposing: Primary screen for SK-N-MC cells (AID 1347093); settings: SK-N-MC viability, CellTiter-Glo luminescence, 48 h; activity change, negative = cytotoxic: at 46 µM (top of the series)
How it was run: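 Metabolically active cells were quantified by ATP-dependent luminescence (CellTiter-Glo, 15 min at room temperature) following 48 h treatment. Cells had been plated at 500-1,000 per well and settled for 5 h beforehand.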

[14] = target: Protein phosphatase 1D (Homo sapiens) (UniProt O15297); assay: RapidFire Mass Spectrometry qHTS Assay for Modulators of WT P53-Induced Phosphatase 1 (WIP1) (AID 1347424)
How it was run: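 RapidFire MS readout of dephosphorylated VEPPL-S-QETFS product, with 1 uM isotope-labelled peptide standard. Reaction: 10 nM WIP1, 2 uM phosphopeptide substrate, 5 min, room temperature, after 1 h compound preincubation; stopped with 0.5% formic acid.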

[15] = Primary qHTS for inhibitors of nuclear receptor binding SET domain protein 2 (NSD2) in an isogenic RCH-ACV NSD2 p.E1099K mutant (9B) (AID 1645876); settings: activity change, negative = viability loss: at 44.9 µM (top of the series) unless noted; also: nearly all actives have a fitted effect of over 70% in size
[16] = Primary qHTS for inhibitors of nuclear receptor binding SET domain protein 2 (NSD2) in an RCH-ACV wild type WT cells (2C) (AID 1645877); settings: activity change, negative = cell killing: at 44.9 µM (top of the series) unless noted; also: nearly all actives have a fitted effect of over 70% in size
[17] = system: SKOV3; assay: Primary qHTS to identify gynecologic anti-cancer compounds using libraries of approved drugs and bioactive compounds (AID 1345084); settings: Gynecologic cancer cell panel viability, ATPlite luminescence, 48 h; series mostly up to 57.5 µM; also: nearly all actives have a fitted effect of over 55% in size
How it was run: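 Luminescence from the ATPlite ATP-monitoring reagent indicates viable cell number; lower signal means cytotoxicity. Cells received compound 16 h after seeding and were exposed for 48 h across five concentrations.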

[18] = Drug repurposing screens with cells derived from glioblastoma tumor samples (AID 1345199); settings: GBM patient neurospheres viability, ATP luminescence, 48 h; Potency: tumour line A unless noted; activity, negative = cell killing: at 46 µM (top of the series), tumour line A unless noted; also: potency is read from the fitted curve at half-maximal effect; nearly all actives have a fitted effect of over 40% in size
How it was run: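 Primary testing used CD133+ neurospheres from four GBM patients, seven concentrations, 48 h exposure and ATP-based viability; confirmation added three slower-growing patient lines.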

[19] = system: DIV17; assay: qHTS profiling for inhibitors of Plasmodium falciparum proliferation (AID 504749); also: nearly all actives have a fitted effect of over 60% in size; settings: P. falciparum in erythrocytes, SYBR Green DNA, 72 h; activity, negative = inhibition: at 28.7 µM (top of the series)
How it was run: (§1)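 SYBR Green fluorescence (ex 485 nm, em 535 nm) reports parasite DNA after 72 h compound exposure of infected red cells at 0.3% parasitemia, 2.5% hematocrit; signal normalized to 0.29 uM artemisinin and vehicle wells.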

[20] = system: PAD; assay: as above; settings: P. falciparum in erythrocytes, SYBR Green DNA, 72 h; series mostly up to 28.7 µM
How it was run: as §1
Tags tell the direction and shape of the fitted curve.

Sequence of UniProt P04150 (P04150 whole entry, looked up): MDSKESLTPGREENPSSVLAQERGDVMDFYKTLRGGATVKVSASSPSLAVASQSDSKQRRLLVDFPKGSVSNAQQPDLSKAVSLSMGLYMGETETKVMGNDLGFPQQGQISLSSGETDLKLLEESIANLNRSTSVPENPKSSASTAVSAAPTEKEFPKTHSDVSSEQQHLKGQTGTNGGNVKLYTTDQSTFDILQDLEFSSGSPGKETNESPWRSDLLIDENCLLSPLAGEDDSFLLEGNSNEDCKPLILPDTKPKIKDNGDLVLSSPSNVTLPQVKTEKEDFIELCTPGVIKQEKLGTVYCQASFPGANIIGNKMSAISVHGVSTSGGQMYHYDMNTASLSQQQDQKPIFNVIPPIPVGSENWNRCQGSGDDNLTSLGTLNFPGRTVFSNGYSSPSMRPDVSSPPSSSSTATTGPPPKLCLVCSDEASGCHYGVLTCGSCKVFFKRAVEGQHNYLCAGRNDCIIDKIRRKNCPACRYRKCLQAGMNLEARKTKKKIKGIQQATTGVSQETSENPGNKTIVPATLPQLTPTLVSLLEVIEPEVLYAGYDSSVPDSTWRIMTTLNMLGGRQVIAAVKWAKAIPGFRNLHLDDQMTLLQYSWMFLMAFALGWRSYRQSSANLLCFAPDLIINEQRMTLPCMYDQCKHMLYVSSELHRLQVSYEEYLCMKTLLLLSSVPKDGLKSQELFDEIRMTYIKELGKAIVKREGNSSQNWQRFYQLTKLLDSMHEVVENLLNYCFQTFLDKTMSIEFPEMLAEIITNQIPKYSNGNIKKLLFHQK
Sequence of UniProt P10828 (P10828 whole entry, looked up): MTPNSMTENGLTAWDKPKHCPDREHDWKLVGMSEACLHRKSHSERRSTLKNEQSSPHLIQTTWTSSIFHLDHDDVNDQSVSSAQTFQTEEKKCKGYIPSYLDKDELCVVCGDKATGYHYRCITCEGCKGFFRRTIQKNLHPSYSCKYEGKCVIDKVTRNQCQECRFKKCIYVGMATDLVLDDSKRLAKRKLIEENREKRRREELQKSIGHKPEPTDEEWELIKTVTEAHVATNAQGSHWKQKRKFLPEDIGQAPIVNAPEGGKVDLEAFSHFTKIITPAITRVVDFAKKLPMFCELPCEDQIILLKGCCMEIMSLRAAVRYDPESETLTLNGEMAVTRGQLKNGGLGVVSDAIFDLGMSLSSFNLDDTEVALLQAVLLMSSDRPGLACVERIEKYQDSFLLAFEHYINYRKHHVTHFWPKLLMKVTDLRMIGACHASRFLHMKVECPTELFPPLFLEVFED
Sequence of UniProt O15297 (O15297 whole entry, looked up): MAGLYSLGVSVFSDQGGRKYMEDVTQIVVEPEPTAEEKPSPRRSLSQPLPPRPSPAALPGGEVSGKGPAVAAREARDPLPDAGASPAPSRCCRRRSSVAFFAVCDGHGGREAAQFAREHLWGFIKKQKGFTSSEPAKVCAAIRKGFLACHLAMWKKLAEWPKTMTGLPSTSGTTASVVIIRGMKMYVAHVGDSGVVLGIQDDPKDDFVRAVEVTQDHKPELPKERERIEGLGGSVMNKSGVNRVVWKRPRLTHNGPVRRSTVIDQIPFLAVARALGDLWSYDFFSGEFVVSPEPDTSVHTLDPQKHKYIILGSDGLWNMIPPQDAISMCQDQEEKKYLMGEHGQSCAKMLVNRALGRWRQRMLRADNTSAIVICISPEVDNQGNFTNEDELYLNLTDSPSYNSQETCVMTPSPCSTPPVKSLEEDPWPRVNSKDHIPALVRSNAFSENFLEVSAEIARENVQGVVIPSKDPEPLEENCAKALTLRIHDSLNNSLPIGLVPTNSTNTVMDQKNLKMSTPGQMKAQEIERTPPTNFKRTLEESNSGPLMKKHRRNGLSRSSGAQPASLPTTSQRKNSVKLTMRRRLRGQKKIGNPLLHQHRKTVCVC

In the case of `Cc1cc(C)nc(NS(=O)(=O)c2ccc(N)cc2)n1`, the Potency [1] is reported as inactive: > 92 µM, the activity change, negative = inhibition [2] is reported as inconclusive: -31.4% [inhibitor] and the Potency [3] is reported as “inactive”. For the same compound, the Potency [4] was “inactive”, the activation [5] was inactive: -4.03% and inconclusive: -12.7% and the Potency [6] was “inactive”. The Potency [7] was “inactive”, the Potency [8] was “inactive” and the activity, negative = inhibition [9] was inconclusive: 5.97% and inconclusive: 4.55%. For the same compound, the activity change % (negative = inhibition) [10] was inactive: -2.95% and inactive: 11.9%, the Potency [11] was “inactive” and the Potency [12] was inconclusive: 75 µM [inhibitor, single point]. The Potency [13] was “inactive”, the Potency [14] was “inactive” and the Potency [15] was “inactive”. The Potency [16] was “inactive”, the Potency [17] was “inactive” and the Potency [18] was inconclusive: 35.5 µM [inhibitor, single point] [tumour line D]. For the same compound, the Potency [19] was “inactive” and the Potency [20] was “inactive”.
